{"source": "PubChem BioAssay AID588855", "about": "(National Center for Advancing Translational Sciences (NCATS), 2011)", "note": "The campaign covered roughly 410,000 compounds. About 5,000 (1.2%) were called active. This list was built around the results that the source calls inconclusive (neither active nor inactive); the mix of calls is not that of the screen. Calls follow the shape of the dose curve; as a rule, active = well fitted inhibition curve with a large enough effect; inconclusive = small, poorly fitted or top-dose-only effect; inactive = no such curve, though single readings can be large or run the other way. Potencies beside an inconclusive call are fits to weak or partial responses and may not hold up. % is scaled to controls: 0 for no effect and ±100 for the full control effect; potency is read from the fitted curve at half-maximal effect; tags tell the direction and shape of the fitted curve."}
{"test": "qHTS for Inhibitors of TGF-b; also: nearly all actives have a fitted effect of over 65% in size", "details": "HepG2 CAGA-GFP TGF-b/SMAD3 reporter, GFP fluorescence, 18 h, TGF-beta stimulated, 500 pg/mL final; series mostly up to 46.1 µM; activity, negative = inhibition: at the top concentration", "method_in_brief": "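Inhibition of TGF-beta-driven CAGA-GFP reporter expression in HEPG2 cells is measured by cellular GFP fluorescence after 18 h stimulation with 500 pg/mL recombinant TGF-beta in 1% FBS medium at 37 degrees C.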"}
{"smiles": "Cc1ccc(Cn2c(CCNC(=O)c3cccc(C)c3)nc3ccccc32)cc1", "Potency": "inconclusive: 22.4 µM [inhibitor, single point]"}
{"smiles": "Cc1cc(=O)n2c3ccccc3n(CC(O)CN3CCN(Cc4ccccc4)CC3)c2c1C#N", "note": "(stereo unspecified)", "Potency": "inconclusive: 10 µM [inhibitor, partial curve, poor fit]"}
{"smiles": "CCN(c1ccccc1)S(=O)(=O)c1ccc(OC)c(NC(=O)Cc2ccc(OC)c(OC)c2)c1", "Potency": "inconclusive: 25.1 µM [inhibitor, single point]"}
{"smiles": "CCN(Cc1ccccc1)C(=O)COC(=O)CNS(=O)(=O)c1ccc(C)cc1", "Potency": "inconclusive: 2.82 µM [inhibitor, full curve]"}
{"smiles": "COc1ccc(C2C(=O)N(C3CCCCC3)CC(=O)N2Cc2ccco2)cc1", "note": "(stereo unspecified)", "Potency": "inconclusive: 14.1 µM [inhibitor, single point]"}
{"smiles": "CCNC(=S)Nc1ccc(OC(F)(F)F)cc1", "Potency": "inconclusive: 5.62 µM [inhibitor, single point]"}
{"smiles": "COc1ccc(-n2nc([N+](=O)[O-])c(=NCc3ccco3)n2O)cc1", "activity, negative = inhibition": "inactive: -2.73%"}
{"smiles": "Nc1ncnc2nc(SCC(=O)Nc3cccc(C(F)(F)F)c3)[nH]c12", "Potency": "inconclusive: 35.5 µM [inhibitor, single point]"}
{"smiles": "CC(=O)Nc1c(Cl)c(Cl)c2c(c1Cl)C(=O)c1cc(Cl)ccc1-2", "Potency": "inconclusive: 0.501 µM [inhibitor, full curve, poor fit]"}
{"smiles": "CN1CCN(c2ccc(CNC(=O)C3Cc4c(-c5ccc(Cl)cc5)ccnc4O3)cc2)CC1", "note": "(stereo unspecified)", "Potency": "inconclusive: 35.5 µM [inhibitor, single point]"}
{"smiles": "CCOC(=O)c1c(-c2ccccc2)oc2ccc(O)c(CN3CCN(C)CC3)c12", "Potency": "inconclusive: 35.5 µM [inhibitor, single point]"}
{"smiles": "COC(=O)c1ccc2nc(-c3cccc(N)c3)cn2c1", "activity, negative = inhibition": "inactive: -3.05%"}
{"smiles": "Cc1ccc(CSc2cn(CC(=O)N3CCCCCC3)c3ccccc23)cc1", "Potency": "inconclusive: 35.5 µM [inhibitor, single point]"}
{"smiles": "COc1ccc(NC(=O)CCC(=O)N/N=C/c2ccc([N+](=O)[O-])s2)cc1", "Potency": "inconclusive: 3.16 µM [inhibitor, partial curve]"}
{"smiles": "Cc1ccc(N(CC(=O)N2CCN(c3ccc(F)cc3)CC2)S(=O)(=O)c2c(C)noc2C)cc1", "Potency": "inconclusive: 25.1 µM [inhibitor, single point]"}
{"smiles": "COc1ccc(/C=C/C(=O)Nc2ccc(C34CC5CC(CC(O)(C5)C3)C4)cc2)cc1OC", "Potency": "inconclusive: 12.6 µM [inhibitor, partial curve, poor fit]"}
{"smiles": "Cc1ccc(/C=C2\\SC(=S)N(CCC(=O)NNC(=O)c3cccnc3)C2=O)cc1", "activity, negative = inhibition": "inactive: 23.3%"}
{"smiles": "O=C(O)c1ccccc1SCc1csc(-c2ccccc2)n1", "activity, negative = inhibition": "inactive: 1.07%"}
{"smiles": "Cc1ccc(NC2=C(Cl)C(=O)c3ccccc3C2=O)cc1", "Potency": "inconclusive: 3.98 µM [inhibitor, full curve, poor fit]"}
{"smiles": "O=C(O)CC(C(=O)O)c1ccc(OCCCCOc2ccc(C(CC(=O)O)C(=O)O)cc2)cc1", "note": "(stereo unspecified)", "activity, negative = inhibition": "inactive: 5.62%"}
{"smiles": "CCC(=O)N1CCc2cc(S(=O)(=O)NCCC(=O)NC3CCCCCC3)ccc21", "activity, negative = inhibition": "inactive: -1.19%"}
{"smiles": "COc1ccc(OC)c(CCNC(=O)CCCn2c(=O)c3cccn3c3ccc(F)cc32)c1", "activity, negative = inhibition": "inactive: 2.97%"}
{"smiles": "COc1ccc(-n2nc3c(N4CCC(C(=O)NCc5ccccc5C)CC4)nnc(C)c3c2C)cc1", "Potency": "inconclusive: 17.8 µM [inhibitor, partial curve, poor fit]"}
{"smiles": "Cc1ccc2c(=O)c(C(=O)c3cccc(Cl)c3)cn(CC(=O)NC3CCCCC3)c2n1", "activity, negative = inhibition": "inactive: 14.8%"}
{"smiles": "Cc1nc(SCC(=O)N(C)Cc2ccco2)c2c(C)c(C)sc2n1", "Potency": "inconclusive: 20 µM [inhibitor, single point]"}
{"smiles": "CC(=O)c1cccc(NC(=O)CC2S/C(=N/N=C/c3cccs3)NC2=O)c1", "note": "(stereo unspecified)", "activity, negative = inhibition": "inactive: 12.5%"}
{"smiles": "CCNC(=O)c1c(NC(C)=O)sc2c1CCCC2", "activity, negative = inhibition": "inactive: 7.48%"}
{"smiles": "Cc1cccc(N2CCN(S(=O)(=O)c3ccc(-c4ccc(=O)[nH]n4)o3)CC2)c1C", "Potency": "inconclusive: 22.4 µM [inhibitor, single point]"}
{"smiles": "CC[C@]12c3[nH]c4cc(-c5ccco5)ccc4c3CCN1C(=O)[C@@H](CC(=O)NC/C=C(\\C)CCC=C(C)C)C[C@@H]2C(=O)N1CCN(C(=O)c2ccco2)CC1", "Potency": "active: 10 µM"}
{"smiles": "Cc1ccc(C)c(Cn2nnc3c(=O)[nH]c(C4CCCN(C(=O)CC(C)C)C4)nc32)c1", "note": "(stereo unspecified)", "Potency": "inconclusive: 14.1 µM [inhibitor, partial curve]"}
{"smiles": "COc1ccc([C@H]2CC(=O)C=C(c3cc(Br)ccc3OC)C2)cc1", "Potency": "inconclusive: 10 µM [inhibitor, partial curve, poor fit]"}
{"smiles": "Cc1cc(C)cc(Oc2ccc(-c3nnc(-c4ccccc4)o3)cc2[N+](=O)[O-])c1", "Potency": "inconclusive: 1.12 µM [inhibitor, partial curve]"}
{"smiles": "O=C1CSC(c2cccc(F)c2)N1c1ccccc1", "note": "(stereo unspecified)", "activity, negative = inhibition": "inactive: -12.7%"}
{"smiles": "CC(C)C(=O)Nc1cccc(C(=O)Nc2ccc(S(=O)(=O)N3CCOCC3)cc2)c1", "Potency": "inconclusive: 35.5 µM [inhibitor, single point]"}
{"smiles": "CSc1ccccc1NC(=O)CCS(=O)(=O)c1nc(-c2ccc3c(c2)OCO3)cc(C(F)(F)F)n1", "Potency": "active: 15.8 µM"}
{"smiles": "C[C@H](CO)N1C[C@H](C)[C@H](CN(C)CC2CCCCC2)Oc2ccc(NS(=O)(=O)c3ccc(F)cc3)cc2CC1=O", "Potency": "inconclusive: 35.5 µM [inhibitor, single point]"}
{"smiles": "O=C1c2cccc3cccc(c23)C(=O)N1CC1CCN(CC(O)COCc2ccc3c(c2)OCO3)CC1", "note": "(stereo unspecified)", "Potency": "inconclusive: 5.62 µM [inhibitor, single point]"}
{"smiles": "Cc1cc(C)n(-c2nnc(C)n2/N=C/c2ccco2)n1", "activity, negative = inhibition": "inactive: 17.4%"}
{"smiles": "CCN(CC)CCNC(=O)c1ccc(NC(=O)C2CCN(c3ncnc4sc(C)c(C)c34)CC2)cc1", "Potency": "inconclusive: 35.5 µM [inhibitor, single point]"}
{"smiles": "Cc1cccc(N(Cc2ccccc2)C(=O)CN2C(=O)NC3(CCCC3)C2=O)c1", "activity, negative = inhibition": "inactive: 21.9%"}
{"smiles": "O=C(CSc1nc(=O)n(Cc2ccccn2)c2c1CCC2)Nc1ccccc1", "Potency": "inconclusive: 35.5 µM [inhibitor, partial curve, poor fit]"}
